In this series the test system is ATP. As to the kind of experiment: switch fluorescence ratio, 500 uM ATP over buffer (Cy3 cluster intensity, sum of 5 cycles each) (fold (ratio)); higher = stronger signal-on switching upon ATP binding; sequences stand for … in TCGTCGGCAGCGTCAGATGTGTATAAGAGACAGTTTTTTTTTTTTTTTTTTTTTTTTT…TC. The conditions noted are these: aptamer strand: ATP DNA aptamer (quencher-CACCTGGGGGAGTATTGCGGAGGAAGG + anchor), 100 nM annealed; ATP concentration: 500 uM; one replicate. In a few lines: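 Clusters with intensities outside 100-1000 RFU were excluded. The remaining Cy3-labelled switching-strand clusters on a modified Illumina MiSeq flow-cell had been annealed to 100 nM quencher-labelled ATP aptamer and imaged in selection buffer, then after 15 min with 500 uM ATP at 22 °C, for five cycles separated by NaOH stripping and re-annealing. The fluorescence ratio, averaged per switch-domain sequence, is each cluster's summed target-cycle Cy3 intensity over its summed buffer-cycle Cy3 intensity.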

Sequences with one replicate were seen in a single cluster, so their values are uncertain.
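Also: ATP exposure 15 min at 22 °C before imaging.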

With ACAGATCACT, the switch fluorescence ratio was 1.

As to CACTGCGGGG, the switch fluorescence ratio worked out at 1.03.

With CCCGTTACTA, the switch fluorescence ratio was determined as 1.08.

As for AGGAATTGTG, the switch fluorescence ratio turned out to be 0.996.

For the sequence TCTTAAGTT, the switch fluorescence ratio was 1.01.

As to TGGTTGGTTT, the switch fluorescence ratio is 1.01.

With GCTTGGGGGC, the switch fluorescence ratio worked out at 0.96.

Regarding GGGGTCGCCG, the switch fluorescence ratio is 1.

AGGACAACAG: the switch fluorescence ratio amounted to 1.03.

For TTTACCCTGC, the switch fluorescence ratio was determined as 1.07.

For the sequence TGGCGAACTC, the switch fluorescence ratio worked out at 1.03.

For the sequence ACCTCGCCGT, the switch fluorescence ratio stood at 1.09.

Turning to CACATAACGC, the switch fluorescence ratio worked out at 1.11.

In the case of TTAAAAACTT, the switch fluorescence ratio worked out at 1.07.

For AATAAGGGAG, the switch fluorescence ratio stood at 0.963.

ACCCCGGATA: the switch fluorescence ratio stood at 1.07.

In the case of CTGAGTAATT, the switch fluorescence ratio is 1.08.

On to CTGTTACGTG, for which the switch fluorescence ratio worked out at 1.01.

Consider GCACTATAGC, for which the switch fluorescence ratio was found to be 1.02.

With GCAGCCGACG, the switch fluorescence ratio was found to be 1.11.

In the case of GGGATACTGC, the switch fluorescence ratio came out at 1.02.

Regarding ACAGCAAATT, the switch fluorescence ratio is 1.15.

ACGGGGGGG: the switch fluorescence ratio amounted to 1.01.

For the sequence AGGATTGCCC, the switch fluorescence ratio came to 0.988.

Take GTCCCTACCT: the switch fluorescence ratio was found to be 1.23.

Consider GCAGTCGTTC, for which the switch fluorescence ratio was 0.973.

For the sequence ATTGACGCAT, the switch fluorescence ratio was found to be 1.34.

With AAGGTGAGCT, the switch fluorescence ratio was determined as 1.

On to ACCTATATCA, for which the switch fluorescence ratio is 1.07.

Regarding CGTAAAGGAC, the switch fluorescence ratio is 1.06.

With CGCCGCCAGT, the switch fluorescence ratio turned out to be 2.1.

With CCGTGGGGTT, the switch fluorescence ratio turned out to be 1.03.

On to CGGGGCATGT, for which the switch fluorescence ratio amounted to 0.978.

On to ACTGTGCTCG, for which the switch fluorescence ratio stood at 1.06.

On to TACACTGAGT, for which the switch fluorescence ratio is 1.04.

As for ATTCAGCGG, the switch fluorescence ratio is 1.01.

With GATAATCG, the switch fluorescence ratio amounted to 0.989.

Consider TAAATACCAA, for which the switch fluorescence ratio turned out to be 1.07.

For GTTTATGCT, the switch fluorescence ratio was 1.03.

Consider GCTACGGT, for which the switch fluorescence ratio is 1.01.

As to AAGTCGGC, the switch fluorescence ratio stood at 0.952.

For TGCCCGAGTG, the switch fluorescence ratio came to 1.42.

Regarding CTTATCAGCG, the switch fluorescence ratio is 0.977.

With TGCCTCCTTT, the switch fluorescence ratio amounted to 0.985.

TGATGGTTTG: the switch fluorescence ratio stood at 0.997.

Take AACGCCGGT: the switch fluorescence ratio amounted to 0.999.

As for GAAGAACTCT, the switch fluorescence ratio amounted to 0.984.

GTTGTGTGGT: the switch fluorescence ratio was 0.965.

GCTTGCATGT: the switch fluorescence ratio turned out to be 0.988.

As to AGCATTGTAG, the switch fluorescence ratio was 1.05.

For ACTGACTGA, the switch fluorescence ratio was 1.18.

On to CGTTCTGCAG, for which the switch fluorescence ratio is 0.945.

For AATAGCGCCT, the switch fluorescence ratio turned out to be 1.02.

GGCGCTATTC: the switch fluorescence ratio turned out to be 1.35.

Regarding TAATGTTAAT, the switch fluorescence ratio was determined as 0.986.

On to ATGGCGTCGG, for which the switch fluorescence ratio was 0.973.

Regarding AGCGGCTTCG, the switch fluorescence ratio stood at 1.08.

With CGGACAGGGC, the switch fluorescence ratio came out at 1.08.

Take ACTGTCTGC: the switch fluorescence ratio is 0.993.

As for GACGACAGTG, the switch fluorescence ratio was 0.989.

Turning to GGTCAAATAT, the switch fluorescence ratio was 0.982.

On to TAAGTGAGTG, for which the switch fluorescence ratio was 1.01.

In the case of TCAATGTACG, the switch fluorescence ratio worked out at 1.07.

As for CTTTTTTAGG, the switch fluorescence ratio amounted to 1.32.

CGTGAATAA: the switch fluorescence ratio is 1.15.

For GAAGTTAACG, the switch fluorescence ratio came out at 1.03.

In the case of GTAGTGATAG, the switch fluorescence ratio amounted to 1.78.

On to GCGTAAGTTA, for which the switch fluorescence ratio worked out at 0.985.

For GGGTATCAGT, the switch fluorescence ratio was 0.969.

CGTTGTGC: the switch fluorescence ratio stood at 1.1.

TGATGTAT: the switch fluorescence ratio turned out to be 1.02.

With TGTGCATGGC, the switch fluorescence ratio worked out at 0.998.

On to TAATTAACGA, for which the switch fluorescence ratio is 1.

Consider AAATCTGTAC, for which the switch fluorescence ratio was determined as 1.12.

As for GTCTGGCAGC, the switch fluorescence ratio is 0.938.

Regarding GCTCACGTGA, the switch fluorescence ratio was determined as 1.

Turning to TGTTCCAGGT, the switch fluorescence ratio is 1.09.

GATAAGAATG: the switch fluorescence ratio was 1.01.

As to TTTCAGAATT, the switch fluorescence ratio was 1.03.

AGCGGCTTAG: the switch fluorescence ratio was 1.11.

Take TGGGAGCAAG: the switch fluorescence ratio came to 1.03.

For the sequence GCCGTTATTG, the switch fluorescence ratio worked out at 0.936.

For the sequence ATTAAGTGAG, the switch fluorescence ratio was 1.03.

Take TTGAGTAGAT: the switch fluorescence ratio was found to be 0.984.

In the case of CTTGAATCA, the switch fluorescence ratio is 0.988.

In the case of AAACATGTTG, the switch fluorescence ratio stood at 0.972.

On to TCCTAGGGA, for which the switch fluorescence ratio worked out at 0.993.

Consider ATCGGGAGGC, for which the switch fluorescence ratio was found to be 0.953.

As to GACAAGGTGT, the switch fluorescence ratio turned out to be 1.25.

Take GCCAACTACT: the switch fluorescence ratio was 1.1.

As for ATAGCTTACC, the switch fluorescence ratio came out at 1.14.

AAGGTGCCTA: the switch fluorescence ratio was 1.01.

Consider GTTCAAGTG, for which the switch fluorescence ratio came to 0.975.

Take GCGCTGGGGA: the switch fluorescence ratio turned out to be 1.04.

Consider AGGATCGTGT, for which the switch fluorescence ratio was determined as 1.01.

In the case of TATGGGGCTC, the switch fluorescence ratio worked out at 1.01.

With AAGGTCAACC, the switch fluorescence ratio came to 1.03.

For the sequence ATCCCTCTTT, the switch fluorescence ratio turned out to be 1.03.

With CGCTCAGAAT, the switch fluorescence ratio amounted to 1.04.

As to GACTTTTCAA, the switch fluorescence ratio amounted to 0.96.

Consider GAGGCCACTT, for which the switch fluorescence ratio is 1.01.

Consider TGGCTCATAG, for which the switch fluorescence ratio came out at 1.03.

With AGGCGAAGGT, the switch fluorescence ratio is 1.02.

For ACTTGAACCT, the switch fluorescence ratio amounted to 1.84.

AGGTTCGGCT: the switch fluorescence ratio turned out to be 0.974.

With GATGTCCTGC, the switch fluorescence ratio came out at 0.999.

As to GGGTACAATG, the switch fluorescence ratio was found to be 1.

In the case of ATAAAGCA, the switch fluorescence ratio was determined as 1.02.

With TGCAATATCA, the switch fluorescence ratio was determined as 1.41.

On to GCAGTCAGTG, for which the switch fluorescence ratio worked out at 1.01.

In the case of GCGGGTGCAA, the switch fluorescence ratio was 1.03.

As for TTGTTTGGG, the switch fluorescence ratio was 0.97.

On to GATTCGGTCG, for which the switch fluorescence ratio is 0.956.

For the sequence GGAATTCGTC, the switch fluorescence ratio was found to be 0.972.

With GGCTGCAGCG, the switch fluorescence ratio is 1.02.

On to GAAAGGTTGC, for which the switch fluorescence ratio is 0.986.

As for GGTGCGTTAT, the switch fluorescence ratio was determined as 2.23.

TAGAGGGTAG: the switch fluorescence ratio stood at 1.

Consider ATTATCCATT, for which the switch fluorescence ratio amounted to 0.975.

Turning to ATTTTGTC, the switch fluorescence ratio came to 1.05.

For CAGTGGAGGT, the switch fluorescence ratio is 0.989.

The record behind these values is the supplement of paper PMC10126150.
